Assay results taken from PMC10405735.
Results are given in words; binding and its absence hold for the method and conditions named. Some binding calls cover weakened binding; strength is not graded here. For some of these results: Sequences can lack the tags named with a protein.

Amino acid sequences for entries named in this document (tags omitted). A change or cut given only in a name is not applied to a line headed by its entry. Residues count along the entry.
UniProt O15218: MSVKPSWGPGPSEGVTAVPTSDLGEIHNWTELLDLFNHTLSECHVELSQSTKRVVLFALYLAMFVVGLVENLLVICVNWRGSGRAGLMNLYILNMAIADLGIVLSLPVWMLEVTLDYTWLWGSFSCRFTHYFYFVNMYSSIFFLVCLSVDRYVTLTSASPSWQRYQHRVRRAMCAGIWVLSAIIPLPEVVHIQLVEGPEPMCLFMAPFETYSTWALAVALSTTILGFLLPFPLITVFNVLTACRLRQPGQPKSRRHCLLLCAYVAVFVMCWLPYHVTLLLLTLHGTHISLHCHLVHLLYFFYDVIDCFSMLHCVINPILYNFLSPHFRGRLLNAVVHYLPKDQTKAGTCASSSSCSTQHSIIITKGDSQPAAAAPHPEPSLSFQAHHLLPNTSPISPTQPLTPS
UniProt P25106: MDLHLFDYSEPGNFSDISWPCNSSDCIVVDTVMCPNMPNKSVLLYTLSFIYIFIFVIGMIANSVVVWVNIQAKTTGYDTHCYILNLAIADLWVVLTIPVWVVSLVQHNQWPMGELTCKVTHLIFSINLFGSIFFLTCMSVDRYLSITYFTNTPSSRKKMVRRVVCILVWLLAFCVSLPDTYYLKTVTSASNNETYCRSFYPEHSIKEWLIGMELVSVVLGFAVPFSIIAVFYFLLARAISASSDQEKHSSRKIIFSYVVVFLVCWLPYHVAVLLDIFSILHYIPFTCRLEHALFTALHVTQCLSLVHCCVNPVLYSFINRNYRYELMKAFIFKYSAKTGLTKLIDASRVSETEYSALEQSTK
UniProt Q9JIL2, residues 17-130: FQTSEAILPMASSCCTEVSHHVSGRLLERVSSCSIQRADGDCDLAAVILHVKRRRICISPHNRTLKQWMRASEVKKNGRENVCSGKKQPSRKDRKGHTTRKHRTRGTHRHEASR

Assays:
[1] = molecular target: T1, ACKR1 (T2A GFP) in 300.19 pre-B cells (UniProt Q16570); assay: flow cytometry on cells; binding: 300.19 pre-B cells stably expressing the receptor (T2A GFP) incubated with 100 or 200 nM fluorescently labelled chemokine at 4°C for 45 min; MFI of parental cells subtracted; only the binder purified
T1 sequence: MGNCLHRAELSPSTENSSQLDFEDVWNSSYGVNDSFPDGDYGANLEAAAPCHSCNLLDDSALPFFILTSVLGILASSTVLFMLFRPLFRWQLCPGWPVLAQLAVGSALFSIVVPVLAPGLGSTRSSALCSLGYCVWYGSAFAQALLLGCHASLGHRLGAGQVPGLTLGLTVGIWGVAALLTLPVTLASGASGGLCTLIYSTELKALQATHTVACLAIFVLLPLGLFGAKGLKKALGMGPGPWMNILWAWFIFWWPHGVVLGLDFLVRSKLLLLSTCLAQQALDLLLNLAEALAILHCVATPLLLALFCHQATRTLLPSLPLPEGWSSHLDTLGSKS

[2] = molecular target: human GPR182 (hGPR182), expressed from hGPR182 T2A GFP in 300.19 pre-B cells (human) (UniProt O15218); assay: as above
[3] = molecular target: T2, murine GPR182 (mGPR182), expressed from mGPR182 T2A GFP in 300.19 pre-B cells (mouse) (UniProt P43142); assay: as above
T2 sequence: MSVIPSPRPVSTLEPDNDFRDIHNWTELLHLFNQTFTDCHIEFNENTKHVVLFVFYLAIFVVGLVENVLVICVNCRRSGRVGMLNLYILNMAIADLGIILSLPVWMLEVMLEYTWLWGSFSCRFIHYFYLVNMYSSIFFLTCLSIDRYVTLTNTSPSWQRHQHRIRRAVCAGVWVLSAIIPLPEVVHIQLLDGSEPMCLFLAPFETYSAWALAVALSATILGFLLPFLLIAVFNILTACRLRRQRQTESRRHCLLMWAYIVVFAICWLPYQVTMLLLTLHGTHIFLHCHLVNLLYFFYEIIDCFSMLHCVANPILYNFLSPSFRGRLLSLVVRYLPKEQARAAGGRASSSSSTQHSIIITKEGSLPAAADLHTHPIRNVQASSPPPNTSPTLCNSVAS

[4] = molecular target: T3, hACKR4 (T2A GFP) in 300.19 pre-B cells (human) (UniProt Q9NPB9); assay: as above
T3 sequence: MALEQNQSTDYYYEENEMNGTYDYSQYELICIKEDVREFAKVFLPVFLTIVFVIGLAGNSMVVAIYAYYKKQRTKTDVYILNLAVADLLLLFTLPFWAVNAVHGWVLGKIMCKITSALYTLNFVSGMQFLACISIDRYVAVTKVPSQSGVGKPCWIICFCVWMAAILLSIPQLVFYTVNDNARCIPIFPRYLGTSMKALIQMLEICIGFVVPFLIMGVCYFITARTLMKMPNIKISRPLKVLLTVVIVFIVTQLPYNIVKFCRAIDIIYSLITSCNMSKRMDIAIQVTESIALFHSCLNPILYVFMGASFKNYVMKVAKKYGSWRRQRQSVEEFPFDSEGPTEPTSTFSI

[5] = molecular target: T4, ACKR2 (T2A GFP) in 300.19 pre-B cells (UniProt O00590); assay: flow cytometry on cells; uptake: 300.19 pre-B cells stably expressing the receptor (T2A GFP), together with parental cells, incubated with 20, 100 or 200 nM fluorescently labelled chemokine at 37°C for 45 min; MFI of parental cells subtracted; only the binder purified
T4 sequence: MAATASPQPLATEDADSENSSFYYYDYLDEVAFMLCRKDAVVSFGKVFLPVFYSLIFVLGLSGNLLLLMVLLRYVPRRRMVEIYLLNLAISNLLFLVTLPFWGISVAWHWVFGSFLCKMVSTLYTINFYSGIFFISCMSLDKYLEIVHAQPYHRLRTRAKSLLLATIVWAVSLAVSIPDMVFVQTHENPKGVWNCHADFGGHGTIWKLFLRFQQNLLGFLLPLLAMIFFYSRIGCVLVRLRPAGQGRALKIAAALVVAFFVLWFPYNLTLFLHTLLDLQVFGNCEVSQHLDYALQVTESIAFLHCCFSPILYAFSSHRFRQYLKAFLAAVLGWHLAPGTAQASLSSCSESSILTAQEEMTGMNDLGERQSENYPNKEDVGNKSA

[6] = molecular target: hACKR3 (T2A GFP) in 300.19 pre-B cells (human) (UniProt P25106); assay: as above
[7] = molecular target: T1, ACKR1 (T2A GFP) in 300.19 pre-B cells; assay: as above
[8] = molecular target: human GPR182 (hGPR182), expressed from hGPR182 T2A GFP in 300.19 pre-B cells (human) (UniProt O15218); assay: as above
[9] = molecular target: T2, murine GPR182 (mGPR182), expressed from mGPR182 T2A GFP in 300.19 pre-B cells (mouse); assay: as above
[10] = molecular target: T3, hACKR4 (T2A GFP) in 300.19 pre-B cells (human); assay: as above

binding [1]: no binding (tested: 100 nM) | binding [2]: binds | binding [3]: binds | binding [4]: no binding (tested: 100 nM) | binding [5]: no binding (tested: 100 nM) | binding [6]: no binding (tested: 100 nM) | binding [7]: no binding (tested: 100 nM) | binding [8]: binds | binding [9]: binds | binding [10]: no binding (tested: 100 nM)
Substance: mCCL28, fluorescently labelled (from UniProt Q9JIL2 17-130) (ligand)
